Changes are numbered by the printed parent chain. Names may count otherwise. These are yes or no findings as the source states them, for the method shown. For part of these data: In cells and extracts the contact can be indirect. Some binding calls cover weakened binding; strength is not graded here. For part of these data: Where a sequence is shown, tags or fusion partners need not be part of it. Each block holds one binder with its values, some of them ahead of it.
How the values were obtained:
[1] = target: T1, asparagine synthetase (ASNS), endogenous (human (endogenous in HGC27 and AGS)) (UniProt P08243); experiment: co-IP; AGS cell lysate (M-PER buffer); NEK8 or ASNS monoclonal antibody with Protein G beads, 4 °C, 4-5 h; homologous IgG as blank control; Western blot
T1 sequence: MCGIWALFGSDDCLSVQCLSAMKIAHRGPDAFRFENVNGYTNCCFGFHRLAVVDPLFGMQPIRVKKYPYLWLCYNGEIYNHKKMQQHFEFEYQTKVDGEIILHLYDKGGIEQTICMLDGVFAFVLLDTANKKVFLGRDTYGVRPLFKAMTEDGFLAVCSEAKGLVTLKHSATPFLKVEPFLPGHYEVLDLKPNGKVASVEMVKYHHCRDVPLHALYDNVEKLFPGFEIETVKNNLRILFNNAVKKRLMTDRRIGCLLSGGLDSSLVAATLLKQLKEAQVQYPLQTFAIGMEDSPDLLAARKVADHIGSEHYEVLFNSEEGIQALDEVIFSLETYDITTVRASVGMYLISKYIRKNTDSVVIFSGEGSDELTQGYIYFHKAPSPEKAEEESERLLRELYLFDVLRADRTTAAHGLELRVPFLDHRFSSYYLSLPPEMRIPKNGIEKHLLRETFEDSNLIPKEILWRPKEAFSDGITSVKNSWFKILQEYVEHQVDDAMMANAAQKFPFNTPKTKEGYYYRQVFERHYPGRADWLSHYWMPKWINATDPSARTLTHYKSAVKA

[2] = target: T2, GST-ASNS asparagine synthetase domain (UniProt P08243); experiment: pull-down; GST affinity isolation: GST-tagged NEK8 or ASNS proteins on glutathione-Sepharose 4B beads incubated with His-tagged ASNS or NEK8 at 4 °C for five hours; wash with GST binding buffer (2 mM EDTA, 50 mM NaF, 100 mM NaCl, 1% NP-40); immunoblotting; both purified
T2 sequence: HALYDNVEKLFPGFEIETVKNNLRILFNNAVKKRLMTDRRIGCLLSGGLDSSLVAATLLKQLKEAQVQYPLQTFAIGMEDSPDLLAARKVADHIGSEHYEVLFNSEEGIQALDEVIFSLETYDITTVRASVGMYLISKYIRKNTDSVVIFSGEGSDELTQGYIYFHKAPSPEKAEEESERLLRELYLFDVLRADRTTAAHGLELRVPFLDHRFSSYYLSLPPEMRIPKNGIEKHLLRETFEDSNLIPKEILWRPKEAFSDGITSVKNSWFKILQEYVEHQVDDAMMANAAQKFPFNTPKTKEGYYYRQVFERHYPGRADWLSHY

[3] = target: T3, NEK8, endogenous in AGS cells (human (endogenous in AGS)) (UniProt Q86SG6); experiment: co-IP; AGS cell lysate (M-PER buffer); NEK8 or ASNS monoclonal antibody with Protein G beads, 4 °C, 4-5 h; homologous IgG as blank control; Western blot
T3 sequence: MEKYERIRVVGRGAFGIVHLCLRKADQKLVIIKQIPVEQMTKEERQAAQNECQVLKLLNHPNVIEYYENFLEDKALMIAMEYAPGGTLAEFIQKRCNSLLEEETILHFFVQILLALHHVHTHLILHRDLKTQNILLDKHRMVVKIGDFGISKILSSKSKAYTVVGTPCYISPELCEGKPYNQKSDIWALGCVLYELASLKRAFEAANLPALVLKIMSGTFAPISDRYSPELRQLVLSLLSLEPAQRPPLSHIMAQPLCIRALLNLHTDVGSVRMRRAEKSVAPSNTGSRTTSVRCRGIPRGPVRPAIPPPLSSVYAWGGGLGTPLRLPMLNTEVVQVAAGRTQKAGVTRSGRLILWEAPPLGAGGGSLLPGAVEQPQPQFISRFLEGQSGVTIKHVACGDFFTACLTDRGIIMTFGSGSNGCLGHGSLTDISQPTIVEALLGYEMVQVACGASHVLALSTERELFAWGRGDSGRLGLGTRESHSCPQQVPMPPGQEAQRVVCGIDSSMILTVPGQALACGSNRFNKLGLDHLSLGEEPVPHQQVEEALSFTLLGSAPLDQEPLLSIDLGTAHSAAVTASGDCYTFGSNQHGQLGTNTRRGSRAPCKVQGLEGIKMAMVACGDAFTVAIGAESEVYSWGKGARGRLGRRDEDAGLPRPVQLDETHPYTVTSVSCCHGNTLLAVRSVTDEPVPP

GST-NEK8 kinase domain = target: T4, GST-NEK8 kinase domain (UniProt Q86SG6); experiment: pull-down; GST affinity isolation: GST-tagged NEK8 or ASNS proteins on glutathione-Sepharose 4B beads incubated with His-tagged ASNS or NEK8 at 4 °C for five hours; wash with GST binding buffer (2 mM EDTA, 50 mM NaF, 100 mM NaCl, 1% NP-40); immunoblotting; both purified
T4 sequence: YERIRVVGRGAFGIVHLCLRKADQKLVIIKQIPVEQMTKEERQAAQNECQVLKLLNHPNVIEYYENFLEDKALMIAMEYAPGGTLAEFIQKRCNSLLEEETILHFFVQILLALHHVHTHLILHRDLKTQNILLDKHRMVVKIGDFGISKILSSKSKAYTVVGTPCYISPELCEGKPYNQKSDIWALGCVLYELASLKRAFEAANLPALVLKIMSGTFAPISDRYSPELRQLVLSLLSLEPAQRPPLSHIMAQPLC

[4] = target: T5, NEK8 (partner in the co-immunoprecipitation with ASNS-WT and ASNS-S349A) (UniProt Q86SG6); experiment: co-IP; lysates of GC cells expressing WT-ASNS/Flag-ASNS or ASNS-S349A/Flag-ASNS-S349A; Western blot; cell line and precipitating antibody not given
T5 sequence: T3 sequence

binding [1]: binds
B1: NEK8, endogenous in AGS cells (enzyme, UniProt Q86SG6 1-692)
chain: T3 sequence

binding [3]: binds
B3: asparagine synthetase (ASNS), endogenous (enzyme, UniProt P08243 1-561)
chain: T1 sequence

binding (GST-NEK8 kinase domain): binds
B4: His-tagged ASNS (enzyme, UniProt P08243 1-561)
chain: T1 sequence

More lines, now with the values behind:

B2: His-NEK8 (enzyme, UniProt Q86SG6 1-692)
chain: T3 sequence
binding [2]: binds

B5: Flag-ASNS (wild type) (enzyme, UniProt P08243 1-561)
chain: T1 sequence
binding [4]: binds

B6: Flag-ASNS-S349A (enzyme, UniProt P08243 1-561)
chain: T1 sequence with S349A
binding [4]: no binding

Source: PMC11702068, “NEK8 promotes the progression of gastric cancer by reprogramming asparagine metabolism” (Molecular Medicine, 2025)
